# The campaign covered roughly 150,000 compounds. About 540 (0.36%) showed an effect of 50% or more. This is one part of the list.
# Tested on: Plasmodium falciparum
# Experiment: Primary screen in NF54 nanoGlo assay, in single point, at 2uM, 72h; a lower Z score goes with more inhibition
# Type: functional, Erythrocyte
# Details: timepoint 72 hour
SMILES,% Inhibition,Z score
Cc1c(NC(=O)Cc2ccc(Cl)cc2)cccc1-c1nc2ncccc2o1,-6%,0.88
O=C(NCCOc1cccc(F)c1)NCc1ccco1,2%,-0.24
CCN1CCCCC1CNC(=O)NC1CCCC(C)C1C (stereo not drawn),8%,-0.96
O=C(CN1CCC[C@H]1C(=O)O)NCc1cccs1,-7%,1.12
Cc1cn(C2CCCCC2)nc1NC(=O)c1cncc(C)c1O,-10%,1.68
Cn1c(C(C)(C)C)nc2cc(NCc3ncc[nH]3)ccc21,-4%,0.37
Cn1ccc2cc(CN3CCC([C@H](O)c4cccs4)CC3)ccc21,-11%,1.11
CC(NC(CC1CCC1)c1ccccc1)c1cn(C)nn1 (stereo not drawn),6%,-0.82
CC1(C2CCN(C(=O)Nc3cn[nH]c3)CC2)OCCO1,-4%,0.57
COC(C)(C)[C@]12CC(O)(C(C)C)ON1[C@H]1CCCCC1N2O (stereo partly drawn),-15%,2.28
Cn1cc(-c2ccc3c(n2)N(C(=O)c2ccccc2S(C)(=O)=O)CCC3)cn1,-6%,0.65
CCCCS(=O)(=O)N1CC2(CCCCC2)C[C@@H]1COCc1ccccc1,-13%,2.24
Cn1c(-c2ccc(Br)cc2)c(C2c3ccccc3C(=O)N2CC2CCCO2)c2ccccc21 (stereo not drawn),6%,-0.8
O=C(NC1CCCC1Oc1ccccc1)c1ccoc1 (stereo not drawn),-4%,0.56
CCOC(=O)C1CCN(c2ncc(S(=O)(=O)c3cc(Cl)ccc3OC)c(N)n2)CC1,-1%,0.13
Cc1cccc(N(C)C(=O)c2sc(NC(=O)c3ccccc3Cl)cc2C)n1,-10%,1.11
CCCCn1c(NC(=O)c2ccccc2Cl)c(S(=O)(=O)c2ccccc2)c2nc3ccccc3nc21,-7%,0.7
CC(=O)NCCOc1ccc(Br)cc1,-6%,0.73
O=C(NCc1ccccn1)c1cc(-c2cccc(Cl)c2)[nH]n1,2%,-0.26
COCCNC(=O)C[C@H](c1c[nH]c2ccccc12)C1CCCCC1,-3%,0.49
CC(C)Cn1cc(C(F)F)c(C(=O)N2CCC[C@H]2c2ccncc2)n1,2%,-0.2

SMILES,% Inhibition,Z score
Cc1ccccc1CN1CCCN(C(=O)Cn2cnccc2=O)CC1,-15%,2.44
CCOc1ccccc1NC(=O)N1CCC[C@H]1c1nc(C(C)C)no1,-2%,0.3
O=C1[C@@H]2CCCN2c2ccc(S(=O)(=O)N3CCOCC3)cc2N1Cc1ccccc1F,-8%,1.16
CCCn1cc(C(=O)N2CCCCc3cc(OC)ccc32)cn1,-3%,0.4
O=C(NCc1cccs1)N[C@H]1CC[C@H](Oc2ncccn2)CC1,-17%,2.93
Nc1ccnc(N2CC(c3ccccn3)C2)n1,-2%,0.3
CC(=O)N1CCO[C@@H](CNc2cnsn2)C1,1%,-0.17
O=C(c1ccc(-n2cnnc2)nc1)N(Cc1ccc2c(c1)OCO2)C1CC1,-13%,1.71
CO[C@@]12CC[C@H](OCC3CC3)C[C@@H]1N(C(=O)c1nn(C)cc1Cl)CC2,4%,-0.61
CCNCC(=O)NCc1ccc(Cl)cc1,2%,-0.44
O=C(c1ccsc1)N1CC(Oc2nccs2)C1,-25%,4.22
CNC(=O)C[C@H](C)Nc1ccc(C)cc1C,-6%,0.81
Cn1nc(-c2cnccn2)cc1CNS(C)(=O)=O,23%,-2.87
O=S(=O)(c1cccc(N[C@@H]2COC3(CCC3)C2)c1)N1CCC(O)CC1,-9%,1.42
Cn1cnn(CC(=O)N[C@H]2CC23CCOCC3)c1=O,-15%,1.55
Cn1c(CNC(=O)[C@@H]2CCCc3nccn32)nc2cccc(Cl)c21,11%,-1.44
CCC(C)C(NC(=O)c1ccc(Cl)cc1)C(=O)OCc1nccn1CC(F)(F)F (stereo not drawn),2%,-0.21
c1ccc2c(c1)CCN(c1ncnc3c1nc1n3CCCCC1)C2,1%,-0.16
CCc1noc(C)c1NC(=O)[C@H]1CCc2[nH]nc(C(F)(F)F)c2C1,-10%,1.22
CC1CCCCC1CC(=O)N1CC2(CCOCC2)CCC1CO (stereo not drawn),9%,-1.17
Cc1noc(C)c1C(=O)NCc1csc(N2CCOCC2)n1,-16%,1.59

SMILES,% Inhibition,Z score
CN(C)C(=O)c1cccnc1O[C@H]1CCN(S(=O)(=O)c2ccc3c(c2)CCC3)C1,-7%,1.06
Cc1c(Cl)ccc2ccc(N3CCC[C@H](c4nncn4C)C3)nc12,-3%,0.49
Cc1nc(CNC[C@@H](C(C)C)N2CCCC2)n(C)c1C,-9%,1.57
N#C[C@H]1CCCN(C(=O)Nc2ccc(CCc3ccccn3)cc2)C1,-13%,2.11
CC(C)C(=O)Nc1ccc([C@H](C(=O)O)N(C)Cc2ccon2)cc1,-5%,0.77
CC1(C)[C@H](C(=O)Nc2ccc(Cl)c(Cl)c2)CC[C@]1(C)C(=O)O,2%,-0.31
O=C(c1cn(C2CCN(S(=O)(=O)c3ccccc3Cl)CC2)nn1)N1CCCCC1,-10%,1.06
CCCc1csc(NC(=O)N(C)Cc2cc(C)on2)n1,-2%,0.27
CCCc1nn(-c2ccc(Cl)cc2)c(=O)n1CC(=O)N1CCNC(=O)C1,-15%,2.98
CCS(=O)(=O)c1cc(OC)ccc1C#N,-4%,0.53
CCN1CCN(c2cccc(NC(=O)c3cc(F)cc4c(=O)c5cc(F)ccc5[nH]c34)c2)CC1,95%,-17.54
Cc1nnc(NCc2cccnc2N2CCOCC2)c(C#N)c1C,-2%,0.24
Cc1noc([C@H](C)S(=O)(=O)Cc2cc(C)on2)n1,35%,-0.8
COc1ccccc1C1(CNC(=O)NC2CCCCC2)CCOCC1,1%,-0.13
CN1CCN(C[C@@H]2CN(C(=O)Cc3ccc(Cl)cc3)C[C@@H]2CO)CC1,-12%,2.04
COc1cccc(N2C(=O)CN(CCC(C)C)[C@H]3CS(=O)(=O)C[C@H]32)c1,5%,-0.71
O=C(c1ccc2nsnc2c1)N1CC[C@H](Oc2cnsn2)C1,-12%,2.3
CCC[C@H]1CN(Cc2cccc(-c3ccco3)c2)C[C@@H]1NS(C)(=O)=O,-7%,1.34
O=C(Nc1cc(-c2ccccn2)no1)c1cccs1,3%,-0.31
C=C(C)C1OCCC1CNC(=O)N(C)Cc1ccoc1C (stereo not drawn),-4%,0.48
CCN1CC(=O)N[C@H]2CN(C(=O)c3cncc(O)n3)CC[C@@H]2OCc2cccc(c2)Oc2cc(OC(C)C)cc(c2)C1=O,1%,-0.26

SMILES,% Inhibition,Z score
Cc1cc(C(=O)N2CCN(Cc3cccnc3)[C@@H]3CS(=O)(=O)C[C@@H]32)[nH]n1,-12%,1.49
CO[C@@]12CC[C@@H](O)C[C@@H]1N(C(=O)c1cc(=O)n(-c3ccccc3)[nH]1)CC2,-14%,1.27
O=C(NC1CCCC1)C1CCN(c2ccc(-c3ccco3)nn2)CC1,0%,0.02
Cc1cnc(C2CC2)n1CCNC(=O)Cc1ccccc1,-14%,1.75
CCc1ccc(-c2cc(C)no2)cc1S(=O)(=O)N(Cc1ccco1)[C@@H](C)c1ccccc1,-5%,0.63
c1ccc(Cc2noc(CN3CCn4ccnc4C3)n2)cc1,-9%,1.96
C=CCn1ncc(CN(C2CCCC2)[C@@H](C)CC)c1C,-8%,1.2
CCOC[C@@]12CCN(C(C)=O)C[C@@H]1CN(C(=O)Cc1cccc(OC)c1)C2,-7%,0.87
O=C(Cn1cc(-c2ccccn2)ccc1=O)NC1CCOCC1,12%,-1.46
COCCN(Cc1ccc(OC)c(OS(=O)(=O)c2cccc(C(F)(F)F)c2)c1)C(=O)Nc1ccccc1OC,-13%,1.45
Cc1cc(CN2CC[C@H](CN(C)Cc3scnc3C)C2)no1,15%,-1.89
O=C(CCc1c[nH]c2ccccc12)Nc1ccccc1C(=O)O,32%,-3.59
CCN(C)C[C@@H](C)CNc1nc(C)nc2c1Cc1ccccc1OC2,-6%,0.84
CCN1CCN(Cc2csc(-c3ccccc3)n2)[C@H]2CS(=O)(=O)C[C@H]21,-13%,1.71
Fc1cc(F)cc(CN2CCC(OC[C@H]3CCCO3)CC2)c1,4%,-0.55
CCS(=O)(=O)N1CCC[C@H](C(=O)NC(C)(C)c2c[nH]nn2)C1,-1%,0.11
O=C1C[C@H](NC(=O)Nc2ccccc2)CN1,-5%,0.91
CCOC(=O)Nc1cc(Cl)ccc1Cl,-6%,0.8
Cc1cc(C)c(NC(=O)CN(C)C(=O)Nc2cccnc2)c(C)c1,-6%,0.82
COc1ccc(CN(CCc2c[nH]c3ccccc23)C(=O)CN(C(=O)Cc2ccc(F)cc2)C2CC2)cc1OC,5%,-0.69
O=C(Cn1c(=O)ncc2c1cnn2[C@H]1CCS(=O)(=O)C1)Nc1ccc(F)c(Cl)c1,5%,-0.67

# From ChEMBL document CHEMBL4888484, “Replenishing the malaria drug discovery pipeline: Screening and hit evaluation of the MMV Hit Generation Library 1 (HGL1) against asexual blood stage Plasmodium falciparum ,using a nano luciferase reporter read-out” (2022)
